Experimental data from article PMC4336329 (PLoS ONE, 2015).
Among all 310,000 compounds or so, about 2,200 (0.71%) showed an effect of 50% or more. Effects have a minus sign here. Some of the results follow.

Biological target: human ether-à-go-go-related gene (hERG) potassium channel (human, UniProt Q12809)
Test: primary screen, population patch clamp on CHO cells stably expressing hERG

Chain of human ether-à-go-go-related gene (hERG) potassium channel (Q12809 whole entry, looked up): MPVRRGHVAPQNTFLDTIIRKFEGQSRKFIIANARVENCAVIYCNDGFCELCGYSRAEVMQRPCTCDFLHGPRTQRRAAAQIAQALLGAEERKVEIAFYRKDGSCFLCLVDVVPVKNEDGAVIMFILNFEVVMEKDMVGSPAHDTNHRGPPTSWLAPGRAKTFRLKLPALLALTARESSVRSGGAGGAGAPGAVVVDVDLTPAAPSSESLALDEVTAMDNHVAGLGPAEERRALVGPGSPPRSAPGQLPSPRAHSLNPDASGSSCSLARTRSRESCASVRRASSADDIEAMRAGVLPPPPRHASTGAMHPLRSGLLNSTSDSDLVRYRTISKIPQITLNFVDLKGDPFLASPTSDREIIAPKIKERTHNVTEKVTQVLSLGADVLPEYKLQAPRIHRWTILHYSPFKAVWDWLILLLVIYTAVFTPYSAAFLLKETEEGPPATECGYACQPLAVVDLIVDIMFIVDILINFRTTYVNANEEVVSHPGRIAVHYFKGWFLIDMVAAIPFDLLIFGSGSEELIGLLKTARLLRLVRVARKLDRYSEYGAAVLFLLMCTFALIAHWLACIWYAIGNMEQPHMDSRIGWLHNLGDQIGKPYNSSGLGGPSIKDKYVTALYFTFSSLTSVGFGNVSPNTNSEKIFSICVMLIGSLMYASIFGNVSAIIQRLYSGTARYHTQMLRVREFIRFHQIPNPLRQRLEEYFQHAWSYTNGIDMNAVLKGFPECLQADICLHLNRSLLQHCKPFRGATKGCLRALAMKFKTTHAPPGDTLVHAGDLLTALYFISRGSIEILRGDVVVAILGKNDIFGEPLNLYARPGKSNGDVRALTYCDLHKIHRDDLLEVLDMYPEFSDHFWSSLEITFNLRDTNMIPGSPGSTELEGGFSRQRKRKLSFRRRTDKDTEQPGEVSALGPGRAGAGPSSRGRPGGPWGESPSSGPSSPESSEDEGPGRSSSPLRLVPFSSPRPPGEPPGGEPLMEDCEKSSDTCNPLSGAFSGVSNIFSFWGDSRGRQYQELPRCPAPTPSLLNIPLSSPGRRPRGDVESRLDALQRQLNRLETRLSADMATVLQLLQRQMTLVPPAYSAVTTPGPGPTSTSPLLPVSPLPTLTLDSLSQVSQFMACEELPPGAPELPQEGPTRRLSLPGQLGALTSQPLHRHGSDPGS

Question: For `CC1(C)CC(=O)C2=C(C1)OC(/N=C/N1CCOCC1)=C(C#N)C2c1ccccc1` (centres unmarked), which “hERG current change (%, negative = inhibition) at 1uM” value is on record?
Answer: The value was 2.73%.

Question: For `CCOc1cc(S(=O)(=O)NCc2ccccc2)ccc1Br`, which “hERG current change (%, negative = inhibition) at 1uM” value is on record?
Answer: Its value is 13.9%.

Question: `CNC(=O)CCc1[nH]c2ccccc2c1Sc1ccccc1` was tested. Which “hERG current change (%, negative = inhibition) at 1uM” value did it give?
Answer: Its value is 13.7%.

Question: With `C=CCn1cc(C(=O)OC)c(=O)c2cc(S(=O)(=O)N3CCCCCC3)ccc21` as the compound, how does the “hERG current change (%, negative = inhibition) at 1uM” value read?
Answer: Its value is 25.8%.

Question: How did the “hERG current change (%, negative = inhibition) at 1uM” value turn out when `CCCCC(CC)COC(=O)C(C#N)=C(c1ccccc1)c1ccccc1` (centres unmarked) was run?
Answer: The value was 14.3%.

Question: With `COC(=O)C1=C(C)N(CCc2c[nH]c3ccccc23)C(=O)/C1=C\N(C)C` as the compound, how does the “hERG current change (%, negative = inhibition) at 1uM” value read?
Answer: Its value is 22%.

Question: Which “hERG current change (%, negative = inhibition) at 1uM” value does the source give for `O=C(CN1CCN(S(=O)(=O)c2ccc(Br)cc2)CC1)N/N=C/c1cccnc1` here?
Answer: The value was -1.72%.

Question: With `COc1cccc(NC(=O)c2ccc3c(c2)C(=O)N(CC2CCCO2)C3=O)c1` (centres unmarked) as the compound, how does the “hERG current change (%, negative = inhibition) at 1uM” value read?
Answer: Its value is 14.2%.

Question: Which “hERG current change (%, negative = inhibition) at 1uM” value does the source give for `O=C(NCCCN1CCCC1=O)C(=O)NCC1OCCCN1S(=O)(=O)c1cc(F)ccc1F` (centres unmarked) here?
Answer: The value was 22.4%.

Question: How did the “hERG current change (%, negative = inhibition) at 1uM” value turn out when `C/C(=N\NC(=O)c1nnn(-c2nonc2N)c1CN1CCCCC1)c1ccccc1O.Cl` was run?
Answer: The value was 9.22%.

Question: Which “hERG current change (%, negative = inhibition) at 1uM” value does the source give for `O=C(C(=O)N1CCN(c2cccc(Cl)c2)CC1)c1cn(CC(=O)N2CCOCC2)c2ccccc12` here?
Answer: Its value is 0.532%.

Question: For `CCc1cc(=O)oc2cc(C)cc(OCC(=O)NC(Cc3ccc(Cl)cc3)C(=O)O)c12` (centres unmarked), which “hERG current change (%, negative = inhibition) at 1uM” value is on record?
Answer: Its value is -6.76%.

Question: With `CCCOc1ccccc1C1NC(=O)NC(C)=C1C(=O)OCCOC` (centres unmarked) as the compound, how does the “hERG current change (%, negative = inhibition) at 1uM” value read?
Answer: Its value is 16.1%.

Question: For `CC(=O)Oc1ccccc1C(=O)Nc1ccccc1C(=O)N1CCCC1`, which “hERG current change (%, negative = inhibition) at 1uM” value is on record?
Answer: The value was 18.7%.

Question: Which “hERG current change (%, negative = inhibition) at 1uM” value does the source give for `CCn1cc([N+](=O)[O-])c(=O)c2cc(F)c(N3CCOCC3)cc21` here?
Answer: The value was 18.3%.

Question: `Cc1ccc(S(=O)(=O)N(CC(=O)NN=C2CCN(C)CC2)c2ccc(C(C)C)cc2)cc1` was tested. Which “hERG current change (%, negative = inhibition) at 1uM” value did it give?
Answer: Its value is 2.72%.

Question: How did the “hERG current change (%, negative = inhibition) at 1uM” value turn out when `CN(c1ccccc1)S(=O)(=O)c1ccc(Cl)c(C(=O)OCC(=O)NCc2ccco2)c1` was run?
Answer: Its value is 10.7%.

Question: How did the “hERG current change (%, negative = inhibition) at 1uM” value turn out when `CCC(C)Nc1nc(OC(C(F)(F)F)C(F)(F)F)nc(OC(C(F)(F)F)C(F)(F)F)n1` (centres unmarked) was run?
Answer: The value was 6.04%.

Question: For `COc1ccc(-c2nc3c4ccccc4ccn3c2CN2CCOCC2)cc1OC.Cl`, which “hERG current change (%, negative = inhibition) at 1uM” value is on record?
Answer: The value was 2.91%.

Question: How did the “hERG current change (%, negative = inhibition) at 1uM” value turn out when `Cc1ccsc1C(=O)C1CCCN(Cc2c(C)nn(C(C)C)c2C)C1` (centres unmarked) was run?
Answer: The value was 9.56%.

Question: `COc1ccc(S(=O)(=O)N2CCCN(S(=O)(=O)c3ccc(OC)c(C)c3)CC2)cc1C` was tested. Which “hERG current change (%, negative = inhibition) at 1uM” value did it give?
Answer: Its value is 3.77%.

Question: Which “hERG current change (%, negative = inhibition) at 1uM” value does the source give for `CC(CO)(CO)NCc1ccc(-c2ccccc2)cc1.Cl` here?
Answer: Its value is 9.61%.

Question: For `O=C(CN1CCCCC1)N1c2ccccc2CCc2ccccc21`, which “hERG current change (%, negative = inhibition) at 1uM” value is on record?
Answer: Its value is 11.7%.

Question: How did the “hERG current change (%, negative = inhibition) at 1uM” value turn out when `COc1ccc(C(=O)c2cn[nH]c2-c2cc(C)ccc2O)cc1` was run?
Answer: The value was 12.4%.

Question: Which “hERG current change (%, negative = inhibition) at 1uM” value does the source give for `O=C(Cn1cnc2ccccc2c1=O)Nc1cccc(S(=O)(=O)N2CCCCC2)c1` here?
Answer: Its value is 8.05%.

Question: How did the “hERG current change (%, negative = inhibition) at 1uM” value turn out when `CCCn1c(N)c(N2CCCCC2)c(=O)n(CC(=O)Nc2ccc(OC(F)(F)F)cc2)c1=O` was run?
Answer: Its value is 6.04%.

Question: For `OC(CN1CCCCC1)Cn1c2ccccc2c2cc(Br)ccc21` (centres unmarked), which “hERG current change (%, negative = inhibition) at 1uM” value is on record?
Answer: The value was 5.76%.

Question: How did the “hERG current change (%, negative = inhibition) at 1uM” value turn out when `CCOc1ccc(C2NC(=O)Cc3cc(OC)c(OC)cc32)cc1` (centres unmarked) was run?
Answer: The value was 13.3%.

Question: For `COc1ccc2c(c1)c(C(=O)O)c(C)n2C(C)C`, which “hERG current change (%, negative = inhibition) at 1uM” value is on record?
Answer: The value was 11.4%.

Question: Which “hERG current change (%, negative = inhibition) at 1uM” value does the source give for `CCCCNC(=O)CN1C(=O)NC2NC(=O)NC21` (centres unmarked) here?
Answer: Its value is 5.31%.

Question: `Cc1ccc(C)c(CSc2ncccc2C(=O)O)c1` was tested. Which “hERG current change (%, negative = inhibition) at 1uM” value did it give?
Answer: The value was 19.3%.

Question: Which “hERG current change (%, negative = inhibition) at 1uM” value does the source give for `Cc1nn(C(=O)c2ccco2)c(C)c1Sc1ccc([N+](=O)[O-])cc1` here?
Answer: Its value is 16.2%.

Question: `O=C(c1ccc(C(F)(F)F)cc1)c1c[nH]c(C(=O)NCCCn2ccnc2)c1` was tested. Which “hERG current change (%, negative = inhibition) at 1uM” value did it give?
Answer: The value was -7.62%.

Question: How did the “hERG current change (%, negative = inhibition) at 1uM” value turn out when `COCCNC(=O)c1ccc(Cl)c(Cl)c1` was run?
Answer: The value was 2.31%.

Question: `Cc1ccccc1S(=O)(=O)NC1OC(=O)C(Cl)=C1Cl` (centres unmarked) was tested. Which “hERG current change (%, negative = inhibition) at 1uM” value did it give?
Answer: Its value is 13%.

Question: Which “hERG current change (%, negative = inhibition) at 1uM” value does the source give for `CC(=O)Nc1ccc(S(=O)(=O)N2CCC(N3CCCC3)CC2)cc1` here?
Answer: The value was 17%.

Question: `CCN1CCN(C(=O)C(=O)c2cn(CC(=O)N3CCCCCC3)c3ccccc23)CC1` was tested. Which “hERG current change (%, negative = inhibition) at 1uM” value did it give?
Answer: Its value is 8.76%.

Question: How did the “hERG current change (%, negative = inhibition) at 1uM” value turn out when `CC1CN(c2nc(-c3ccccc3)nc3ccccc23)CC(C)O1` (centres unmarked) was run?
Answer: Its value is 7.37%.

Question: How did the “hERG current change (%, negative = inhibition) at 1uM” value turn out when `CCOC(=O)c1sc(NS(=O)(=O)c2ccc(NC(C)=O)cc2)nc1C` was run?
Answer: The value was -1.94%.

Question: For `CCOc1cc(/C=N/N=C(N)N)ccc1OCc1ccc(Cl)cc1`, which “hERG current change (%, negative = inhibition) at 1uM” value is on record?
Answer: The value was 6.86%.

Question: `Cc1cccc(C(=O)NCC(=O)OCC(=O)N2CCCCC2)c1` was tested. Which “hERG current change (%, negative = inhibition) at 1uM” value did it give?
Answer: Its value is 13%.

Question: For `NC(=O)CC(NC(=O)Cc1ccc(Br)cc1)c1ccc(NCCc2cccc(F)c2)c([N+](=O)[O-])c1` (centres unmarked), which “hERG current change (%, negative = inhibition) at 1uM” value is on record?
Answer: The value was 2.31%.

Question: Which “hERG current change (%, negative = inhibition) at 1uM” value does the source give for `O=C(OC1CCOC1=O)c1cc(Cl)ccc1[N+](=O)[O-]` (centres unmarked) here?
Answer: Its value is 16.5%.

Question: With `Cc1cc(Cl)ccc1NC(=S)NC(C)(C)C` as the compound, how does the “hERG current change (%, negative = inhibition) at 1uM” value read?
Answer: Its value is 18.5%.

Question: `CCn1c(SCC(=O)NCc2ccco2)nnc1C(C)C` was tested. Which “hERG current change (%, negative = inhibition) at 1uM” value did it give?
Answer: Its value is 2.73%.

Question: `Nc1c(C(=O)c2ccc(Br)cc2)oc2ccccc12` was tested. Which “hERG current change (%, negative = inhibition) at 1uM” value did it give?
Answer: The value was 15.8%.

Question: How did the “hERG current change (%, negative = inhibition) at 1uM” value turn out when `CCc1noc(C)c1C(=O)N(CC)CC(=O)Nc1ccccc1C(F)(F)F` was run?
Answer: The value was 3.86%.

Question: `CNc1ccccc1C(C)(C)c1cc(-c2ccc(F)cc2)no1` was tested. Which “hERG current change (%, negative = inhibition) at 1uM” value did it give?
Answer: Its value is 19.1%.

Question: With `O=C(Nc1ccc2oc(=O)ccc2c1)c1ccc(-c2cccc([N+](=O)[O-])c2)o1` as the compound, how does the “hERG current change (%, negative = inhibition) at 1uM” value read?
Answer: Its value is 13.9%.

Question: `Nc1nc(CN2CCN(c3ccccc3)CC2)nc(N2CCCc3ccccc32)n1` was tested. Which “hERG current change (%, negative = inhibition) at 1uM” value did it give?
Answer: Its value is 2.47%.

Question: With `C=CCN(Cc1cc(OC)ccc1OC)C(=O)c1cc2ccc(OC)cc2[nH]1` as the compound, how does the “hERG current change (%, negative = inhibition) at 1uM” value read?
Answer: Its value is 5.18%.

Question: How did the “hERG current change (%, negative = inhibition) at 1uM” value turn out when `O=C(O)c1ccc(NC(CSCc2ccc(F)cc2)C(=O)O)c([N+](=O)[O-])c1` (centres unmarked) was run?
Answer: The value was 2.24%.

Question: With `O=C(CN1CCN(Cc2ccccc2Cl)C1=O)N1CCCCCC1` as the compound, how does the “hERG current change (%, negative = inhibition) at 1uM” value read?
Answer: The value was 5.43%.

Question: Which “hERG current change (%, negative = inhibition) at 1uM” value does the source give for `Cc1cccc(NC(=O)/C=C/c2ccc3c(c2)OCO3)n1` here?
Answer: The value was 16.8%.

Question: With `COc1ccc(CCNC(=O)CSc2nnc3ccccn23)cc1` as the compound, how does the “hERG current change (%, negative = inhibition) at 1uM” value read?
Answer: The value was 16.1%.

Question: For `CCCC(=O)N1CCN(c2ccc(NC(=O)C(C)(C)C)cc2)CC1`, which “hERG current change (%, negative = inhibition) at 1uM” value is on record?
Answer: The value was 14.3%.
